This is an account of results in article PMC13568701.

Amino acid sequences for entries named in this document (tags omitted).
UniProt Q99250: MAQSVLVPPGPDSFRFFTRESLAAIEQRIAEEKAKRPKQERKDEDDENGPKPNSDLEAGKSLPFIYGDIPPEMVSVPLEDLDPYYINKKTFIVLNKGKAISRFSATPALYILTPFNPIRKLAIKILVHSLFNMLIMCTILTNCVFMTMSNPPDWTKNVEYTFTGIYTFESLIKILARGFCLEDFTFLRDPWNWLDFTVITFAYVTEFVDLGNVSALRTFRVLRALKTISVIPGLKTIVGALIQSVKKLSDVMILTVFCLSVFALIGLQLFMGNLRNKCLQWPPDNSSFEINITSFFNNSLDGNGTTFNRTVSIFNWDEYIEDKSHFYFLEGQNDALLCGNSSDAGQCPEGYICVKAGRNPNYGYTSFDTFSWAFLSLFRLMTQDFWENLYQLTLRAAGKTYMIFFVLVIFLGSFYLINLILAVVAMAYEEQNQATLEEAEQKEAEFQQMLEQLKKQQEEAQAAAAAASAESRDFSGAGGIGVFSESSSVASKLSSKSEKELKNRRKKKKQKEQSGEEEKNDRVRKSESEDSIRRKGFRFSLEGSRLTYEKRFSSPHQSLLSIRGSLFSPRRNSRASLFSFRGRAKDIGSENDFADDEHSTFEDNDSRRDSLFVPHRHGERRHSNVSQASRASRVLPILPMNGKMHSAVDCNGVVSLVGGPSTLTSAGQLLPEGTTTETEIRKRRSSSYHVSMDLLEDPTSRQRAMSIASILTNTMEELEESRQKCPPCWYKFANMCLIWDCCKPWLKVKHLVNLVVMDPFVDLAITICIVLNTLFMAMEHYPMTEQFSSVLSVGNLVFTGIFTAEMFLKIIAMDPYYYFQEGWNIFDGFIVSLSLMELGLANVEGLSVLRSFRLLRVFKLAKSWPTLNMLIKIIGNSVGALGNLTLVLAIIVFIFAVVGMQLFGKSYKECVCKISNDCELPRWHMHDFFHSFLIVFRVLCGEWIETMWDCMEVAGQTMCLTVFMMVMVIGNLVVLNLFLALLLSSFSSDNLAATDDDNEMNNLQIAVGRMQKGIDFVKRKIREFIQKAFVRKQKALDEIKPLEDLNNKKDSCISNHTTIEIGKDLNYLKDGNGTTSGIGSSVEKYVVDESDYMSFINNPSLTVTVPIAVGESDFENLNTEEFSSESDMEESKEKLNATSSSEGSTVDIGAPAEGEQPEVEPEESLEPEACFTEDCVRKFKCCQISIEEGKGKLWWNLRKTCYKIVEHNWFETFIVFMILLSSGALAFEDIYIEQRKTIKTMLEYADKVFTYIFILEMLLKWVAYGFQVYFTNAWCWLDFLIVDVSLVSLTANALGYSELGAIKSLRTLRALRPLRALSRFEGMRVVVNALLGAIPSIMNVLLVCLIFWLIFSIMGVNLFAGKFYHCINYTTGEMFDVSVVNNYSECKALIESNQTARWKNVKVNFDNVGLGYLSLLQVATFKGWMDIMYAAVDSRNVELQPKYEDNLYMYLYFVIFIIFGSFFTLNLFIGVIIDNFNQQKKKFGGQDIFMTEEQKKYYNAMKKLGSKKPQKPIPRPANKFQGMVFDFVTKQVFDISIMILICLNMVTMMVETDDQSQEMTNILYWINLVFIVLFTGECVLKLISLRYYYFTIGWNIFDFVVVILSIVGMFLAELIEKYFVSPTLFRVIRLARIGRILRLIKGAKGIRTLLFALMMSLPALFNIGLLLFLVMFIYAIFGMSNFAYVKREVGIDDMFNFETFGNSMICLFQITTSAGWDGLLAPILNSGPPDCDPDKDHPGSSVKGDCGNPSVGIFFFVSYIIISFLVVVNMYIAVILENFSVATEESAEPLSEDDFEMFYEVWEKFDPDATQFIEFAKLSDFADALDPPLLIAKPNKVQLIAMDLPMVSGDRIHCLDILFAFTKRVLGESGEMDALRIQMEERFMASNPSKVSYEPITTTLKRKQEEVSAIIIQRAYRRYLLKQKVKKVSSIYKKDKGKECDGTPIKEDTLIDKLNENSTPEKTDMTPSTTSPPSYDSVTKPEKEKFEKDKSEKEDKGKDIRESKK
UniProt B1AWN6: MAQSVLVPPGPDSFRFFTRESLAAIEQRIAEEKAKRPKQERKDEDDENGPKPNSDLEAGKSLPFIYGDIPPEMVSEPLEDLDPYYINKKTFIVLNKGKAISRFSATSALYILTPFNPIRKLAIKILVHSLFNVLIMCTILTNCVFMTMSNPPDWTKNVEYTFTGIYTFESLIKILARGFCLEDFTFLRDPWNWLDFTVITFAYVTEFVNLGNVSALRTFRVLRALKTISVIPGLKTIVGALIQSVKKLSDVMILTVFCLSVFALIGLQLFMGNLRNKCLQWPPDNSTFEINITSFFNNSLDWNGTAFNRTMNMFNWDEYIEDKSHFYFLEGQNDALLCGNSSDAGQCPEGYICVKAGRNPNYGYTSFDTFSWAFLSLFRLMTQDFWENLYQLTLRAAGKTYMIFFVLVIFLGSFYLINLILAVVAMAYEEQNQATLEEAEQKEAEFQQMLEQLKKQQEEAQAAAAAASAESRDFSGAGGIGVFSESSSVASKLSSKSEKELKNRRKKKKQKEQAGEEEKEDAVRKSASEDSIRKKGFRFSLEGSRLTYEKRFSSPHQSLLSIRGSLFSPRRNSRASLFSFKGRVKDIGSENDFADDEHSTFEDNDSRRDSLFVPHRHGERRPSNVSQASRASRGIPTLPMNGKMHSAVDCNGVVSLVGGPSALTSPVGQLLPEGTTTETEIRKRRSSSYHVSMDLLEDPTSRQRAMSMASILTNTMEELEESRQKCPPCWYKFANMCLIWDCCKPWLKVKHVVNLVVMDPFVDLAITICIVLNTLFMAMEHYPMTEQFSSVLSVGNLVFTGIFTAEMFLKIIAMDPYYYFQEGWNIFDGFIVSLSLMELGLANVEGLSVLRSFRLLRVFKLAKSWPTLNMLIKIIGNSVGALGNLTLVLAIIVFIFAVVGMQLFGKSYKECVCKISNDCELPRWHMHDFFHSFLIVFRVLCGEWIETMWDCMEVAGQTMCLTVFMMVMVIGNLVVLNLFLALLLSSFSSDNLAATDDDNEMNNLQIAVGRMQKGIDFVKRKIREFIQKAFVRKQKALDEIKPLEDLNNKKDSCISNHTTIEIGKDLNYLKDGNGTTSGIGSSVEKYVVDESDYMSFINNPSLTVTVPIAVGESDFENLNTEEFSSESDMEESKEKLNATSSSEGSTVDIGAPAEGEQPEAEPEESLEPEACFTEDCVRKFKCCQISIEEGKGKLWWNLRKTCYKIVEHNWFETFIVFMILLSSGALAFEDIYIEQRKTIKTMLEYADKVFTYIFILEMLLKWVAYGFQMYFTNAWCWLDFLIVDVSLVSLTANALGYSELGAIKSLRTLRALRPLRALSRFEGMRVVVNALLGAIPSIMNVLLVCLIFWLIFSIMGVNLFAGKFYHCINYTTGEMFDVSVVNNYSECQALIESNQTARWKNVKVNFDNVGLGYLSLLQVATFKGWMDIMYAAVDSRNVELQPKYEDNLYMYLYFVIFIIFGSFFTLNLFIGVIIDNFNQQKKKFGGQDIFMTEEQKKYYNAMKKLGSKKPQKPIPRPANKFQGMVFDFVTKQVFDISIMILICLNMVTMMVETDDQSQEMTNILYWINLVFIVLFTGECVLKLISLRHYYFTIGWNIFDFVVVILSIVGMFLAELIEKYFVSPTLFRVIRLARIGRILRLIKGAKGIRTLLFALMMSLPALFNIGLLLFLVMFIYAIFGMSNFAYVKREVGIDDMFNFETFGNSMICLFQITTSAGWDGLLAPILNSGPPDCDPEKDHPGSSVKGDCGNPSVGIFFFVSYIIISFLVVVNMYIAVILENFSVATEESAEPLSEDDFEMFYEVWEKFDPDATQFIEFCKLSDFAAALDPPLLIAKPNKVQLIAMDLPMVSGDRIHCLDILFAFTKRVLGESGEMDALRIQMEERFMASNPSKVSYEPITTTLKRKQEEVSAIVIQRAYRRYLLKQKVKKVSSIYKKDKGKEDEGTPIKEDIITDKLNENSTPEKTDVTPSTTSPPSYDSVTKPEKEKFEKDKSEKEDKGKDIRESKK

These are yes or no findings as the source states them, for the method shown. In cells and extracts the contact can be indirect. Some results given as binding are weak or reduced against the parent protein; the word gives no strength. Where a sequence is shown, tags or fusion partners need not be part of it.

Assay [1] concerns the target T1, human PRRT2(1-268), HA-tagged N-terminal truncation (human) (UniProt Q7Z6L0).
T1 sequence: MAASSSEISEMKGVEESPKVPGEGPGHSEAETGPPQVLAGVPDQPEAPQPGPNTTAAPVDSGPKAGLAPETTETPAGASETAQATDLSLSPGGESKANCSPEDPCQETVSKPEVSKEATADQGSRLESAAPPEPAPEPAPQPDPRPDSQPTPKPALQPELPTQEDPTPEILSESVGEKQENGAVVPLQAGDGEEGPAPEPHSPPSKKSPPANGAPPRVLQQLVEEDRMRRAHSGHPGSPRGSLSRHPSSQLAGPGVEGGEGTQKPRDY
The experiment in a line: co-IP; HEK293T co-transfected with Flag-tagged Nav channel and HA-tagged PRRT2 construct; lysis in 20 mM Tris-HCl, 150 mM NaCl, 0.5% DDM; 400 ug protein with anti-HA nanobody magnetic beads, 4°C, 1 h; washes with 0.05% DDM; immunoblot.

Assay [2] addresses T2, human PRRT2-HA (Proline-Rich Transmembrane Protein 2, HA-tagged) (human) (UniProt Q7Z6L0).
T2 sequence: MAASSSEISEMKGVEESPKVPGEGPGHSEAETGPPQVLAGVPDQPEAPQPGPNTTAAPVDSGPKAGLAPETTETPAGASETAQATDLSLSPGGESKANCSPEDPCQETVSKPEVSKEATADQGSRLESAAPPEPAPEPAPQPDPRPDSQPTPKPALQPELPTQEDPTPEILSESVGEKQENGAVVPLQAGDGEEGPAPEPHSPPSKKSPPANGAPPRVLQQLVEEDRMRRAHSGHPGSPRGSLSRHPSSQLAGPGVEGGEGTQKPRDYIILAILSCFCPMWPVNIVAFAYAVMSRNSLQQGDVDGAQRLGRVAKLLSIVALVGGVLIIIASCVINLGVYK
The assay is described as above.

In assay [3] the target is T3, human PRRT2(250-340), HA-tagged C-terminal truncation (human) (UniProt Q7Z6L0).
T3 sequence: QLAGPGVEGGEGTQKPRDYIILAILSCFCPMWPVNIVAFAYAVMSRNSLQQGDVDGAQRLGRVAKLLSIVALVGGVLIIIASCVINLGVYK
The assay is described as above.

Assay [4] deals with T4, mouse PRRT2-V5 (endogenous PRRT2 with a V5 tag, Prrt2-V5 knock-in mouse) (mouse (endogenous in brain of Prrt2-V5 knock-in mice)) (UniProt E9PUL5).
T4 sequence: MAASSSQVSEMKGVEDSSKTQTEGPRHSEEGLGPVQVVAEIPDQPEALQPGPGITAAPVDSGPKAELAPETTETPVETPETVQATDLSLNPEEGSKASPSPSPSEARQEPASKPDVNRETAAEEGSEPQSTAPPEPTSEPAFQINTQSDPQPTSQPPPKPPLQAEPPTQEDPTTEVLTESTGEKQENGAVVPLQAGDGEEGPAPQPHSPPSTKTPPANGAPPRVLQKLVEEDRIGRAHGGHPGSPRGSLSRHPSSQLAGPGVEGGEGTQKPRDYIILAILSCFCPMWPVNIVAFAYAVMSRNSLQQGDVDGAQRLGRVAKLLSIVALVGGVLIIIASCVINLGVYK
The experiment in a line: co-IP; brain membrane fractions of Prrt2-V5 knock-in or wild-type mice solubilised in 0.3% DDM; ~200 ug protein with V5-Trap (anti-V5 nanobody) magnetic beads, 4°C, 1.5 h; washes with 0.15% DDM; immunoblot. For orientation: In western blotting, separated proteins are transferred to a membrane and probed.

Assay [5] has as its target Flag-Nav1.2 (Flag-tagged voltage-gated sodium channel Nav1.2 alpha subunit) (UniProt Q99250). Description: co-IP; HEK293T co-transfected with Flag-tagged Nav channel and HA-tagged PRRT2 construct; lysis in 20 mM Tris-HCl, 150 mM NaCl, 0.5% DDM; 400 ug protein with anti-Flag magnetic beads, 4°C, 1 h; washes with 0.05% DDM; immunoblot.

On to “Flag-Nav1.2 (Flag-tagged voltage-gated sodium channel Nav1.2 alpha subunit) (from UniProt Q99250 1-2005)”, for which the binding entry in assay [1] is reported as “no binding”; in assay [2], “binds”; in assay [3], “binds”.
Turning to “mouse Nav1.2 (endogenous, brain) (from UniProt B1AWN6 1-2006)”, the binding result in assay [4] is given as “binds”.

B1: mouse ATP1B2 (endogenous, brain) (protein, UniProt P14231 1-290)
chain: MVIQKEKKSCGQVVEEWKEFVWNPRTHQFMGRTGTSWAFILLFYLVFYGFLTAMFSLTMWVMLQTVSDHTPKYQDRLATPGLMIRPKTENLDVIVNISDTESWGQHVQKLNKFLEPYNDSIQAQKNDVCRPGRYYEQPDNGVLNYPKRACQFNRTQLGDCSGIGDPTHYGYSTGQPCVFIKMNRVINFYAGANQSMNVTCVGKRDEDAENLGHFVMFPANGSIDLMYFPYYGKKFHVNYTQPLVAVKFLNVTPNVEVNVECRINAANIATDDERDKFAGRVAFKLRINKT
As for B1, in assay [4], the binding entry is given as “no binding”.

B2: human PRRT2-HA (Proline-Rich Transmembrane Protein 2, HA-tagged) (protein, UniProt Q7Z6L0 1-340)
chain: MAASSSEISEMKGVEESPKVPGEGPGHSEAETGPPQVLAGVPDQPEAPQPGPNTTAAPVDSGPKAGLAPETTETPAGASETAQATDLSLSPGGESKANCSPEDPCQETVSKPEVSKEATADQGSRLESAAPPEPAPEPAPQPDPRPDSQPTPKPALQPELPTQEDPTPEILSESVGEKQENGAVVPLQAGDGEEGPAPEPHSPPSKKSPPANGAPPRVLQQLVEEDRMRRAHSGHPGSPRGSLSRHPSSQLAGPGVEGGEGTQKPRDYIILAILSCFCPMWPVNIVAFAYAVMSRNSLQQGDVDGAQRLGRVAKLLSIVALVGGVLIIIASCVINLGVYK
As for B2, the binding entry in assay [5] is given as “binds”.

B3: human PRRT2(250-340), HA-tagged C-terminal truncation (domain or fragment, UniProt Q7Z6L0 250-340)
chain: QLAGPGVEGGEGTQKPRDYIILAILSCFCPMWPVNIVAFAYAVMSRNSLQQGDVDGAQRLGRVAKLLSIVALVGGVLIIIASCVINLGVYK
Turning to B3, the binding result in assay [5] was “binds”.

B4: human PRRT2(1-268), HA-tagged N-terminal truncation (domain or fragment, UniProt Q7Z6L0 1-268)
chain: MAASSSEISEMKGVEESPKVPGEGPGHSEAETGPPQVLAGVPDQPEAPQPGPNTTAAPVDSGPKAGLAPETTETPAGASETAQATDLSLSPGGESKANCSPEDPCQETVSKPEVSKEATADQGSRLESAAPPEPAPEPAPQPDPRPDSQPTPKPALQPELPTQEDPTPEILSESVGEKQENGAVVPLQAGDGEEGPAPEPHSPPSKKSPPANGAPPRVLQQLVEEDRMRRAHSGHPGSPRGSLSRHPSSQLAGPGVEGGEGTQKPRDY
Regarding B4, the binding entry in assay [5] is on record as “no binding”.
